The other results are listed elsewhere or left out.
B1: chr9:74692981:74693082:+|3pUTR|ENSG00000198963|unk|total|mutant (ssRNA)
RNA: GGGAGUUCUACAGUCCGACGAUCUUUUAUAUUACUUCCGAAUGUAACCGGUUUUUGUCCUUAUUUUAUGUCCUGUAAAUUAUCCGUUCAAUACUGUCCGCAUUCCCGGAUAAUGCACACAUGAUUUCUGAAUGUUUUCUGUAACAACAGAGGAUUGAGCAUCA
B2: ENSG00000136451:be:win_451|CDS|ENSG00000136451|bound_else_gene|NA|bound_elsewhere_windowed (ssRNA)
RNA: GGGAGUUCUACAGUCCGACGAUCAGUGCCAGCACCACAGCUAUGCCAGUGACCCAGUCUGUCAAGAAACCCAGUAAGCCUGUCAAGAAGAACCAUGCUUGUGAGAUGUGUGGGAAGGCCUUCCGAGAUGUGUACCAUCUCAAUCAACAGAGGAUUGAGCAUCA
B3: chr14:31448161:31448454:-|three_prime_utr|ENSG00000129480|control|control|control (ssRNA)
RNA: GGGAGUUCUACAGUCCGACGAUCUGGAAAAGAAGAAGGGUUUGAACUUUACUCUCAAUUUGUGACUCUAUGUGAAAAAGAAGUAGCUGCUAAUAGCAAGUGUGCUGAAGCUAGGGUUGUAGUGGAACAUGGCACUUAUGGGAACAACAGAGGAUUGAGCAUCA
B4: chr17:7656804:7656905:+|3pUTR|ENSG00000129244|unk|total|mutant (ssRNA)
RNA: GGGAGUUCUACAGUCCGACGAUCGCAUGUGCCACCAUGCCCGGCUAAUUUCUUUCUUUCUUUUUUUUUUUUUUUGCAUUUUUCCGCCGAGAUGGGGGUUUCUCCUUGUUGGUCAGGCUGGUCUCGAACUCCCGACCUCAGGUGCAACAGAGGAUUGAGCAUCA
B5: chr17:40866619:40867186:-|CDS|ENSG00000187242|control|control|control (ssRNA)
RNA: GGGAGUUCUACAGUCCGACGAUCUGAUAGAUUAGCUUCCUACCUGGAUAAGGUGCGAGCUCUAGAAGAGGCUAAUACUGAGCUAGAAAAUAAAAUUCGAGAAUGGUAUGAAACACGAGGAACUGGGACUGCAGAUGCUUCACACAACAGAGGAUUGAGCAUCA
B6: chr12:49127802:49127903:-|3pUTR|ENSG00000123416|msi1_unk|FALSE|overlapping (ssRNA)
RNA: GGGAGUUCUACAGUCCGACGAUCAUGUCAUGCUCCCAGAAUUUCAGCUUCAGCUUAACUGACAGACGUUAAAGCUUUCUGGUUAGAUUGUUUUCACUUGGUGAUCAUGUCUUUUCCAUGUGUACCUGUAAUAUUUUUCCAUCACAACAGAGGAUUGAGCAUCA
B7: chr10:91942452:91942553:+|CDS|ENSG00000095564|unk|FALSE|unique (ssRNA)
RNA: GGGAGUUCUACAGUCCGACGAUCAGUUCUAUGGAAGAUUCACCUACUACAGAGCGAUUGAAUUUUGACAGAUUUGAUAUAUGUAGAUUGUUACAACAUGGUGCAUCACUCCUGGGAUCUGCUGGUGCCGAAUUUGAAGUCCAACAACAGAGGAUUGAGCAUCA
B8: ENSG00000166402:stop:overlap|stop_codon|ENSG00000166402|stop_codon|NA|stop_codon (ssRNA)
RNA: GGGAGUUCUACAGUCCGACGAUCGUGCACUGCAGGCCUUUGCCAUUGCCCUGUCCAGCUUCGACAGCAAGCUGGCGUGCGAGUAGAGGCCUCUUCGUGCCCUUUGGGGUUGCCCAGCCUGGAGCGGAGCUUGCCUGCCUGCCUCAACAGAGGAUUGAGCAUCA
B9: ENSG00000107863:be:win_401|CDS|ENSG00000107863|bound_else_gene|NA|bound_elsewhere_windowed (ssRNA)
RNA: GGGAGUUCUACAGUCCGACGAUCGCAAAACCUAUUCCCAAGUAAUUGCUUUAAUUCAAAACAGUGAUACAACAUUGGAACUUAGUGUUAUGCCAAAAGAUGAAGACAUUCUCCAAGUGCUACAGUUUACAAAGGAUGUCACAGCAACAGAGGAUUGAGCAUCA
B10: chr14:102729990:102730091:+|3pUTR|ENSG00000089902|msi1|total|mutant (ssRNA)
RNA: GGGAGUUCUACAGUCCGACGAUCUGCGAUGCUCUUUCUGCCAGUCCCUGAAUCUCUGCAGCUUCUCUUACCUGUCUUACCUGCCGUAAAGCACAAUUGCAGUGGCGUCGCAUUCAGAAGAAGGGAAGGUCAGCAGAGGCUAUGCAACAGAGGAUUGAGCAUCA
B11: chrX:112630647:112631419:-|three_prime_utr|ENSG00000182508|control|control|control (ssRNA)
RNA: GGGAGUUCUACAGUCCGACGAUCAGAAGAUUGGAGAGGGUGGGAAAGGGGAGGAGGGAGCCCUGAAAAGAGGUACUAAGGAUUAGGCCAUUUGUCAUCUGACUGUCAUUAGCAUAGCCUAGUGUUUGCAUGCUUUUUAAACUACAACAGAGGAUUGAGCAUCA
B12: chr9:83806335:83806438:-|CDS|ENSG00000165113|unk|FALSE|unique (ssRNA)
RNA: GGGAGUUCUACAGUCCGACGAUCUGGCUCUGAUUCUGAACCUGGAAAAGGUAAAGGUCGAAAUACUGGAAAGUCUCAAACUUUAGGAAGCAAGUCAACUACAAAUGAGAAAAAAAGAGAGAAAAGAAGAAAAAAGAAGGAACACAACAGAGGAUUGAGCAUCA
B13: chr8:88032264:88032379:-|3pUTR|ENSG00000156103|unk|FALSE|bound_elsewhere (ssRNA)
RNA: GGGAGUUCUACAGUCCGACGAUCACUCCUUAUAAUGUUGCGUCAUUAAAGGUCAAGGGGUCAUGCUAUUAAUCUCAUUGCUAUAGACCAUUAACAUGACUGAACUUUUCCACAAAGUACUUAUGUUUACAAUGCUAUAACCCUCAACAGAGGAUUGAGCAUCA
B14: chr15:42211119:42211220:-|3pUTR|ENSG00000103978|unk|total|mutant (ssRNA)
RNA: GGGAGUUCUACAGUCCGACGAUCAGGUUACAUCUUGCAGAGGUUGUUUUGAGAAAAAAGGGCCCUUCUGAGUUAAGGAGCCACCGUUCUAUCAAUGAUCAAAAGAAAAAAAAAAAAAGAGAAACUGUUACAGUAUGAUUCAGACAACAGAGGAUUGAGCAUCA
B15: chr7:151349087:151349194:+|CDS|ENSG00000013374|unk|total|mutant (ssRNA)
RNA: GGGAGUUCUACAGUCCGACGAUCCCUUGCUAAGCAGUACUCUGACAGACCCGAAUGCUGUGAAAAUGAAGCCGAAAAGGUAACCGAAGAAAUACGUUGCAAGGCAAUUGAGCGUGGAACAGGAAAUGACAAUUACCGAACAACCAACAGAGGAUUGAGCAUCA
B16: chr9:34610807:34611296:-|CDS|ENSG00000164967|control|control|control (ssRNA)
RNA: GGGAGUUCUACAGUCCGACGAUCCAAGCUACGUUUCCUUCAGACUGAGGACAGCUGGGUCCCAGCCUCACCUGACACAGGGCUAGACCCCCUCACAGUGCGCCGCCAUGUGCCUGCAGUGUGGGUGCUGCUCAGCCGGGACCCCAACAGAGGAUUGAGCAUCA
B17: chr16:20924479:20924582:+|3pUTR|ENSG00000102897|unk|FALSE|unique (ssRNA)
RNA: GGGAGUUCUACAGUCCGACGAUCCUACUAUAAAACUAUGUACCACUCUCAGAAUAUUCUUAGGCUUUUUUUUUUUCAAGUUAUAGAUUUGCUUAAAGUGAGGUUUUUUGGUGUGUGCUUUUUUGUUGUCUUUUGACCCUUCCACAACAGAGGAUUGAGCAUCA
B18: chr1:6592219:6592320:-|3pUTR|ENSG00000162413|unk|total|mutant (ssRNA)
RNA: GGGAGUUCUACAGUCCGACGAUCCCCAAAGCCGCCUUGGCUUGAGUUUUUGUCCUUGCCUCCUUUUCCGAGAAGAGGGCAUUCCGACUGCAUUUUCCUGGUUAAAGAAGGUUAAAGCAAAUGUUUAUUGCCUUUUCCCGUGAACAACAGAGGAUUGAGCAUCA
B19: chr13:77097425:77097526:-|CDS|ENSG00000005810|msi1|total|mutant (ssRNA)
RNA: GGGAGUUCUACAGUCCGACGAUCAGAAAAGGCAGAAGUCCGGCCCAGGGGUAAUUUGUUUGGAGAGAUGGCCCAGCUGGCAGCCGGAGGACCAGAGAAAGAUACCAUCUGUGAACUGUGUGGGGAGUCACAUCCAUACCCGGUCAACAGAGGAUUGAGCAUCA
B20: ENSG00000141127:stop:overlap|stop_codon|ENSG00000141127|stop_codon|NA|stop_codon (ssRNA)
RNA: GGGAGUUCUACAGUCCGACGAUCAUUCAUCAUGUAUGGAGCUAUCAAAGAAAAUUGCAGACUUUUUCCCCCUUUCUCUUCUCUAGGCGGCUAGGGGUGGAGAUGGGCAAAGUGCAGGUUUACCAGGAACCUAACAGAGAAACACAACAGAGGAUUGAGCAUCA
B21: chr10:75150949:75151073:+|CDS|ENSG00000156671|unk|total|mutant (ssRNA)
RNA: GGGAGUUCUACAGUCCGACGAUCUGUUCGAAGAUUGGACCCAGAAUACUGGAAGACUAUACUGAGUUGUAUAUAUGUUUUUACCGUAUUUGGAUUUACAUCUUUCAUUAUGGUUACCGUCCAUGAGCGAGUGCCUGACAUGCACAACAGAGGAUUGAGCAUCA
B22: ENSG00000070961:be:win_3501|CDS|ENSG00000070961|bound_else_gene|NA|bound_elsewhere_windowed (ssRNA)
RNA: GGGAGUUCUACAGUCCGACGAUCCGAAGAUGAUGCUCCUACAAAACGUAACUCCAGUCCUCCACCCUCUCCCAACAAAAAUAACAAUGCUGUUGACAGUGGAAUUCACCUUACAAUAGAAAUGAACAAGUCUGCUACCUCUUCCAACAGAGGAUUGAGCAUCA

Each binder was assayed against MSI1 full-length (mouse, UniProt Q61474 1-362) (assay: nsRBNS (natural sequence RNA bind-n-seq); RBNS binding buffer (assumed for nsRBNS): 25 mM Tris pH 7.5, 150 mM KCl, 3 mM MgCl2, 0.01% Triton X-100, 500 ug/ml BSA, 20 U/ml SUPERase-In, 4 C; UNK is unkempt and MSI1 is Musashi-1; names of the RNAs are library labels; protein concentration not given here; high values mean tight binding).
UniProt Q61474, sequence (Q61474 whole entry): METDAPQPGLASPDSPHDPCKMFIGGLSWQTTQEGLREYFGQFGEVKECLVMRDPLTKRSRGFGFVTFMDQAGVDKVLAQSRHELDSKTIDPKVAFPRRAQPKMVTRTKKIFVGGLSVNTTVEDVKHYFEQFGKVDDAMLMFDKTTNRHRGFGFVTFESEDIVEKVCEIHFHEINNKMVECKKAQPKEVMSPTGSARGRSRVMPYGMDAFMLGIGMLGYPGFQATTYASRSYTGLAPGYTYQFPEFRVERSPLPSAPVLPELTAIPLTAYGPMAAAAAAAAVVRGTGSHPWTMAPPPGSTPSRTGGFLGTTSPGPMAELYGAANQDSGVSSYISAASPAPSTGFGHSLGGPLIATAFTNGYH

| Binder | binding signal [enrichment R] |
| --- | --- |
| B1 | 0.521 |
| B2 | 0.391 |
| B3 | 0.653 |
| B4 | 1.66 |
| B5 | 0.887 |
| B6 | 2 |
| B7 | 0.338 |
| B8 | 0.817 |
| B9 | 0.42 |
| B10 | 0.334 |
| B11 | 1.39 |
| B12 | 0.736 |
| B13 | 0.72 |
| B14 | 0.35 |
| B15 | 0.307 |
| B16 | 0.422 |
| B17 | 3.73 |
| B18 | 0.284 |
| B19 | 0.482 |
| B20 | 0.444 |
| B21 | 0.343 |
| B22 | 1.48 |

— article PMC12136788
